Experimental data reported in PubChem BioAssay AID686978 (National Center for Advancing Translational Sciences (NCATS), 2013).
Values joined by “and” are separate entries in the source; they are usually repeats but may differ in a detail not shown here. Equal values may be shown once. Screen size: about 420,000 compounds; about 64,000 (15%) were called active. The shares of active, inactive and inconclusive entries below differ from those in the screen. The call rests on the fitted dose curve; in most records, active means well fitted inhibition curve with a large enough effect; inconclusive means small, poorly fitted or top-dose-only effect; inactive means flat fitted curve, though single readings scatter. Potencies of inconclusive entries are left out as doubtful fits. Some compounds were tested as several samples or in several runs, with calls that do not always agree.

Test: qHTS for Inhibitors of human tyrosyl-DNA phosphodiesterase 1 (TDP1): qHTS in cells in absence of CPT; further: nearly all actives have a fitted effect of over 55% in size
Conditions: DT40 Tdp1-/- hTDP1 cells, no CPT, ATP luminescence, 48 h; activity change, negative = growth inhibition: at 46.2 µM (top of the series) unless noted
Summary of the method: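 Cells were dispensed at 400 per well, compounds added by pin tool, plates incubated ≥48 hr at 37 °C, then CellTiter-Glo added for 30 min at room temperature before luminescence reading. Line: DT40 Tdp1-/- complemented with hTDP1; camptothecin omitted.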
On the % scale 0 is the no-effect control and ±100 the full control effect; potency means the concentration at half of the fitted maximal effect; tags describe the fitted curve by direction and shape.

**Q.** Which Potency does the source give for `CCN(CC)S(=O)(=O)c1ccc2c(c1)N(CC(=O)Nc1cccc(C)c1C)C(=O)C1CCCN21` (configuration not stated) here?
**A.** inconclusive [inhibitor, single point]

**Q.** Which Potency does the source give for `CC(C)(C)CC(C)(C)NCC(=O)Nc1c2c(nc3ccccc13)CCC2` here?
**A.** inconclusive [inhibitor, single point]

**Q.** With `COc1ccc(CCNC(=O)c2cc(-c3ccc(C)c(C)c3O)n[nH]2)cc1OC` as the compound, how does the Potency read?
**A.** active: 16.4 µM

**Q.** Which activity change, negative = growth inhibition does the source give for `O=c1[nH]c2cc([N+](=O)[O-])ccc2c2cc(Br)ccc12` here?
**A.** inconclusive: -35.3% [inhibitor]

**Q.** Which Potency does the source give for `COc1cc(/C=N/O)ccc1Oc1ccc([N+](=O)[O-])cc1[N+](=O)[O-]` here?
**A.** active: 18.4 µM

**Q.** Which Potency does the source give for `CC(Sc1nc2cc(Cl)ccc2s1)C(=O)Nc1ccc2c(c1)OCO2` (configuration not stated) here?
**A.** inconclusive [inhibitor, single point]

**Q.** For `CCCNCCC(c1ccco1)c1ccccc1OC` (configuration not stated), which Potency is on record?
**A.** inconclusive [inhibitor, partial curve]

**Q.** With `CCOC(=O)NC(N(O)c1cccc(Cl)c1)C(Cl)(Cl)Cl` (configuration not stated) as the compound, how does the Potency read?
**A.** inactive

**Q.** For `COc1cccc(-c2noc(-c3cc4ccccc4oc3=O)n2)c1OC`, which Potency is on record?
**A.** inactive

**Q.** Which Potency does the source give for `O=[N+]([O-])c1cccc(C2=NC(c3ccccc3)CO2)c1` (configuration not stated) here?
**A.** inactive

**Q.** For `COc1ccc(C(c2nnnn2C2CCCCC2)N2CCN(c3ccc(OC)cc3)CC2)cc1` (configuration not stated), which Potency is on record?
**A.** active: 16.4 µM

**Q.** With `COc1ccc(CNC(=O)c2sc(=O)n(Cc3ccc(S(=O)(=O)N(C)C)cc3)c2C)cc1` as the compound, how does the Potency read?
**A.** inconclusive [inhibitor, partial curve, poor fit]

**Q.** Which Potency does the source give for `O=C(CCc1nc2ccccc2c(=O)[nH]1)Nc1ccc(F)cc1` here?
**A.** inconclusive [inhibitor, single point]

**Q.** Which Potency does the source give for `O=C(CCCN1CCC(O)(c2ccc(Cl)cc2)CC1)c1ccc(F)cc1` here?
**A.** inactive and active: 29.9 µM and active: 16.4 µM

**Q.** Which Potency does the source give for `COc1ccc(NC(=O)CNC(=O)C2CCCCC2)cc1OC` here?
**A.** inconclusive [inhibitor, single point]

**Q.** Which Potency does the source give for `Nc1nonc1-c1nc2ccccc2n1CC(=O)Nc1cccc(C(F)(F)F)c1` here?
**A.** active: 13 µM

**Q.** For `CC1CN(C(=O)CSc2nc(N)cc(N)n2)CC(C)O1` (configuration not stated), which Potency is on record?
**A.** inactive

**Q.** With `COc1ccc(C)cc1NC(=O)CSc1ncc2c(n1)-c1ccc(Cl)cc1N(Cc1ccccc1)S2(=O)=O` as the compound, how does the Potency read?
**A.** inconclusive [inhibitor, full curve]

**Q.** Which Potency does the source give for `COc1ccccc1CCNC(=O)c1cc(-c2ccncc2)nc2ccc(Br)cc12` here?
**A.** active: 20.6 µM

**Q.** For `Cc1ccc(NC(=O)CCN2C(=O)c3ccccc3Sc3ncccc32)cc1`, which Potency is on record?
**A.** active: 16.4 µM

**Q.** For `CC(=O)NC(c1ccccc1)c1nc(-c2cccc(C(F)(F)F)c2)cs1` (configuration not stated), which Potency is on record?
**A.** inconclusive [inhibitor, partial curve]

**Q.** With `COc1cc(OC)c(NC(=O)C(CC(C)C)N2Cc3ccccc3C2=O)cc1Cl` (configuration not stated) as the compound, how does the Potency read?
**A.** inconclusive [inhibitor, single point]

**Q.** For `CC(C)(C)OC(=O)N1CCC(c2cc(=O)n3[nH]c(-c4ccc(Cl)cc4)cc3n2)CC1`, which Potency is on record?
**A.** active: 23.1 µM

**Q.** With `CN(C)c1cccc(C(=O)Nc2ccc(N3CCOCC3)cc2)c1` as the compound, how does the activity change, negative = growth inhibition read?
**A.** inconclusive: -32.4% [inhibitor]

**Q.** With `CCOC(=O)c1ccccc1NC(=S)N1CCCCC1` as the compound, how does the activity change, negative = growth inhibition read?
**A.** inconclusive: -30.5% [inhibitor]

**Q.** With `Cc1nn(C)c(NC(=O)c2ccccc2Cl)c1Br` as the compound, how does the Potency read?
**A.** inactive

**Q.** For `O=C(C(NS(=O)(=O)c1cccc2nsnc12)c1ccccc1)N1CCN(c2ccccc2)CC1` (configuration not stated), which Potency is on record?
**A.** inconclusive [inhibitor, single point]

**Q.** Which Potency does the source give for `CCn1cc(C(=O)OCC(=O)c2cc(C)n(-c3ccccc3)c2C)c(=O)c2ccc(C)nc21` here?
**A.** inconclusive [inhibitor, single point]

**Q.** For `Cc1c(N=C2NC(=O)C(CC(=O)Nc3ccccc3)S2)c(=O)n(-c2ccccc2)n1C` (configuration not stated), which Potency is on record?
**A.** inactive

**Q.** For `CC1CCN(Cc2csc(N)n2)CC1`, which Potency is on record?
**A.** inactive

**Q.** For `Cc1cc(C)nc(NC(=S)NC(=O)c2ccccc2)n1`, which Potency is on record?
**A.** inactive

**Q.** Which Potency does the source give for `O=C(NCc1cn(-c2ccccc2)nc1-c1ccccc1)c1cccc([N+](=O)[O-])c1` here?
**A.** inconclusive [inhibitor, single point]

**Q.** Which Potency does the source give for `COc1ccc(/C=N/n2c(C)cc(C)cc2=O)cc1` here?
**A.** inactive

**Q.** Which Potency does the source give for `Cc1ccc(Cl)cc1NC(=S)NCCCSC1CCCCC1` here?
**A.** active: 18.4 µM

**Q.** For `O=C(O)/C=C/C(=O)Nc1ccccc1SC(F)(F)C(F)(F)C(F)(F)F`, which Potency is on record?
**A.** inconclusive [inhibitor, single point]

**Q.** For `O=C(OCC(=O)N(C1CCCCC1)C1CCCCC1)c1ccc(Cl)nc1`, which Potency is on record?
**A.** inactive

**Q.** Which Potency does the source give for `O=C(NC(=S)N(CC1CCC1)CC1CCCO1)c1cccc([N+](=O)[O-])c1` (configuration not stated) here?
**A.** inconclusive [inhibitor, single point]

**Q.** With `CCOC(=O)[C@H]1[C@H]2COc3ccc(OC)cc3[C@@H]2N2C(=O)[C@H](C)NC(=O)[C@@]12C` as the compound, how does the Potency read?
**A.** inactive

**Q.** Which Potency does the source give for `Cc1cc(C)n(-c2nc3ccccc3c(=O)n2OCC(=O)Nc2c(C)cccc2C)n1` here?
**A.** active: 18.4 µM

**Q.** With `Cc1cc(C)n(-c2cc(C(C)(C)C)nc3c(-c4ccccc4)cnn23)n1` as the compound, how does the Potency read?
**A.** inconclusive [inhibitor, partial curve]

**Q.** For `CC(=O)N1CCCc2cc(S(=O)(=O)Nc3ccc4c(c3)OCO4)ccc21`, which Potency is on record?
**A.** inactive

**Q.** Which Potency does the source give for `Cc1ccc(NS(=O)(=O)c2cccc3cccnc23)c(Br)c1` here?
**A.** inactive

**Q.** Which Potency does the source give for `CC1Cc2ccccc2N1C(=O)Cn1cnc2ccccc2c1=O` (configuration not stated) here?
**A.** inconclusive [inhibitor, single point]

**Q.** Which Potency does the source give for `COc1cccc(N/C(SCc2cccc([N+](=O)[O-])c2)=C(/C#N)C(N)=O)c1` here?
**A.** inconclusive [inhibitor, single point]

**Q.** For `CC(=O)Nc1ccc(S(=O)(=O)Nc2cccc(NC(=O)c3ccco3)c2)cc1`, which Potency is on record?
**A.** inconclusive [inhibitor, partial curve, poor fit]

**Q.** For `COc1cc(C2=NOC(C(=O)NCc3ccccn3)C2)cc(OC)c1OC` (configuration not stated), which Potency is on record?
**A.** inconclusive [inhibitor, single point]

**Q.** For `COc1ccc(-c2nc3c(c(=O)[nH]c(=O)n3Cc3ccccc3)n2Cc2ccccc2)cc1`, which Potency is on record?
**A.** active: 20.6 µM
